Experimental data reported in article PMC4336329 (PLoS ONE, 2015).
In all, about 310,000 compounds went through this assay and about 14,000 (4.5%) showed an effect of 50% or more. The effect is printed as a negative number. Some of the results follow.

These compounds were tested against human ether-à-go-go-related gene (hERG) potassium channel (human, UniProt Q12809) (assay: primary screen, population patch clamp on CHO cells stably expressing hERG).
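Further: peak tail current of the secondary pulse compared with the same well before compound.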

Chain of human ether-à-go-go-related gene (hERG) potassium channel (Q12809 whole entry, looked up): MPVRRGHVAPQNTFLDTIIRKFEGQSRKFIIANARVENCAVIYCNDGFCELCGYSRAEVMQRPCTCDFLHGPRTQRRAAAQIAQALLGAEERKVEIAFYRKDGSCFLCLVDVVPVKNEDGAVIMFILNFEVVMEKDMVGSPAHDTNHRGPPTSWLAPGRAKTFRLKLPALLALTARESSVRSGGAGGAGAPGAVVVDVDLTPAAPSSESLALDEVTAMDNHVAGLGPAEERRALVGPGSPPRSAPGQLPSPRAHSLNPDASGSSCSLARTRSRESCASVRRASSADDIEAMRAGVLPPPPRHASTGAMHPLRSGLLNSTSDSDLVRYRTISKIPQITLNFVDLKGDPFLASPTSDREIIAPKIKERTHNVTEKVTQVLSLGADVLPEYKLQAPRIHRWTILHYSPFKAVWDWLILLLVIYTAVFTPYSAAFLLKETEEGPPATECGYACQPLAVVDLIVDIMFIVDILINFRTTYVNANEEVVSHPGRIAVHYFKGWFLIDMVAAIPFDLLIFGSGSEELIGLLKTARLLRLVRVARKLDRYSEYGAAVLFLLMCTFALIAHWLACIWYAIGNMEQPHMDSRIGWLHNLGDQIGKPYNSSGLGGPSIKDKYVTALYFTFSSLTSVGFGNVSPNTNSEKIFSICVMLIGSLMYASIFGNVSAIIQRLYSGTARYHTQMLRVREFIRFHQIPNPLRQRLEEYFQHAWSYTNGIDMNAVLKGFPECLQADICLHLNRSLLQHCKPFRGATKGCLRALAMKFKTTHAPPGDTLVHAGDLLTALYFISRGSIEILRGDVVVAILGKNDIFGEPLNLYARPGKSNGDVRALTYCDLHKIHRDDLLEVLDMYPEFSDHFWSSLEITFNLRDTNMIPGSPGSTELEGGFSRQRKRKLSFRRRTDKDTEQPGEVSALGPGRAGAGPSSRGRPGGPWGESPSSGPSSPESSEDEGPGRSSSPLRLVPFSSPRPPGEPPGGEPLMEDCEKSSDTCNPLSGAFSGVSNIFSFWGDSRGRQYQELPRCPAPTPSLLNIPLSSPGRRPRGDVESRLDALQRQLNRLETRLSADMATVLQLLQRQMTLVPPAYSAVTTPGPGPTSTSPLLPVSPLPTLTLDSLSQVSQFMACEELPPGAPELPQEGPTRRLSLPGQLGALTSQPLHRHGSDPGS

Row | SMILES | hERG current change (%, negative = inhibition) at 10uM
1 | Cc1ccc(CCN2CC(C(=O)NCCN3CCCCCC3)CC2=O)cc1 (stereo not shown) | -3.28%
2 | CC(C)Oc1cccc(C(=O)NC(=S)Nc2ccccc2)c1 | -7.26%
3 | CCC(=O)c1cc2c(C)cc(=O)oc2c(C)c1O | -7.17%
4 | COc1ccc(C(=O)NC2CCN(CC(=O)Nc3c(C)cccc3C)CC2)cc1OC | 18.7%
5 | C=CC(=O)N(CCC)C(c1ccccc1)c1ccccc1OC (stereo not shown) | -5.5%
6 | O=C(Nc1nc2nc(-c3ccccc3)cc(=O)n2[nH]1)c1ccccc1 | 13.7%
7 | Cc1cc(C)c(C)c(OCCn2ccnc2)c1 | 10.1%
8 | O=C(COC(=O)C1CCN(S(=O)(=O)c2cccs2)CC1)c1ccccc1 | 20.6%
9 | Clc1ccc(OCCCCCN2CCCC2)c(Br)c1 | -62.3%
10 | Cn1cc(-c2cc(C(=O)O)on2)cn1 | 8.19%
11 | CCc1nn(CCCC(=O)NC(C)c2ccccc2)c(=O)c2cc3occc3n12 (stereo not shown) | -16.4%
12 | COc1cc(/C=N/N(C)c2ccccc2)cc(Cl)c1O | 16.6%
13 | O=C(/C=C/c1ccco1)NCC(=O)N/N=C/c1ccc([N+](=O)[O-])cc1 | -0.504%
14 | Cc1ccsc1C(=O)N1CCN(c2ccccn2)CC1 | 20.4%
15 | COc1cc(/C=C/C(=O)OCC(=O)N2CCC(C)CC2)ccc1OCC#N | -9.56%
16 | COc1ccc(S(N)(=O)=O)cc1C(=O)NCC1(N2CCCCC2)CCCCC1 | -20.2%
17 | Cc1ccc(NC(=O)C(=O)NCc2ccc(/C=C(/C#N)C(=O)NCc3cccnc3)o2)cc1 | -17.7%
18 | O=CN1CCN(C(C(=O)NC2CCCC2)c2ccc(Cl)cc2)CC1 (stereo not shown) | -14.8%
19 | COc1ccc([C@H]2CC(=O)C=C(c3cc(C(F)(F)F)cc(C(F)(F)F)c3)C2)cc1 | 4.42%
20 | CCOc1ccc(NS(=O)(=O)c2cc(NC(=O)CCC(=O)c3cccs3)ccc2Cl)cc1 | 19.3%
21 | Cn1cc(S(=O)(=O)Nc2cccc(F)c2)c(=O)n(C)c1=O | -16.9%
22 | Cc1cccc(NC(=S)NCC(c2cccnc2)N2CCOCC2)c1 (stereo not shown) | 6.72%

Row | SMILES | hERG current change (%, negative = inhibition) at 10uM
23 | Nc1cc(C(=O)N/N=C/c2cccc([N+](=O)[O-])c2)n[nH]c1=O | 7.18%
24 | CC(C)C(=O)N1CCN(c2ccccc2NC(=O)Cc2ccc(Cl)cc2)CC1 | -69.7%
25 | CCOC(=O)c1sc(NC(=O)CSc2n[nH]c(-c3ccccc3)n2)c(C#N)c1C | -5.57%
26 | Cc1ccc(OCC(O)CN2CCOCC2)cc1C.Cl (stereo not shown) | 17.7%
27 | C/C(=N\NS(C)(=O)=O)c1ccc(C)cc1 | -2.18%
28 | CN1CCN(C(=S)SCC(=O)Nc2nc(-c3ccccc3)c(-c3ccccc3)o2)CC1 | -12%
29 | CNC(=O)c1oc(-c2ccccc2)nc1C | 12.4%
30 | CCOC(=O)CCC(=O)N1CCOCCOCCN(C(=O)CCC(=O)OCC)CCOCCOCC1 | 11.3%
31 | CCOc1ccc(C(=O)Nc2ccccc2N2CCCC2)cc1 | -22.8%
32 | N#Cc1c(C(F)(F)F)cc(-c2cccc(Cl)c2)[nH]c1=O | 25.2%
33 | COc1ccc(C(c2c(N)[nH]c(=S)[nH]c2=O)c2c(N)[nH]c(=S)[nH]c2=O)cc1 | 15.8%
34 | Cc1ccc(NC(=O)CN2C(=O)N/C(=C/c3ccc(N4CCOCC4)cc3)C2=O)cc1 | 3.62%
35 | Cc1ccc(CN(C(=O)Cn2nnc3ccccc32)C(C(=O)NCc2ccco2)c2ccc(C)o2)cc1 (stereo not shown) | 0.0258%
36 | CN(CCC#N)C(=S)Nc1ccc(S(=O)(=O)N2CCOCC2)cc1 | 5.82%
37 | O=C(NCCCN1CCCC1)Nc1ccc(F)cc1 | 4.71%
38 | O=C(Cn1nnc2ccccc2c1=O)NCc1ccc(Cl)cc1 | 8.5%
39 | Cc1nc2sccn2c(=O)c1S(=O)(=O)NCc1ccccc1 | -2.53%
40 | CCN(CC)CCC(C)OC(=O)c1ccc(O)cc1O.Cl (stereo not shown) | -21.9%
41 | O=C(NCC1(N2CCCCC2)CCCCC1)c1ccc(NS(=O)(=O)c2ccccc2)cc1 | -44.1%
42 | CCOC(=O)CNC(=O)COc1coc(CN2CCN(c3ccc(F)cc3)CC2)cc1=O | 3.38%
43 | CCOc1ccccc1NC(=O)C(OC(=O)c1ccc(CC)cc1)c1ccccc1 (stereo not shown) | -3.44%
44 | CC(C)[C@@H](C(=O)NC1CCCC1)N1C(=O)N2CCc3c([nH]c4ccccc34)[C@@]2(C)C1=O | -12.4%

Row | SMILES | hERG current change (%, negative = inhibition) at 10uM
45 | CCOC(=O)c1[nH]c2ccc(Br)cc2c1NC(=O)CCN1CCC(C)CC1 | -69.1%
46 | Oc1ccccc1-c1cc(C(F)(F)C(F)F)nc(-c2ccccc2)n1 | 4.07%
47 | CC(C(=O)Nc1ccccn1)c1ccccc1 (stereo not shown) | 14.7%
48 | CCN1CCCC1CNC(=O)CS(=O)(=O)Cc1nc(-c2ccccc2C)oc1C (stereo not shown) | -8.88%
49 | Cc1ccccc1NC(=O)COC(=O)CNC(=O)c1sc2ccccc2c1Cl | 13.8%
50 | Cn1cc(CN2CCC(C(=O)N3CCCCC3)CC2)c(-c2ccccc2F)n1 | 4.1%
51 | COc1ccc2c(c1)c(=O)oc1cc3occ(C(C)(C)C)c3cc12 | -0.705%
52 | Cc1ccc(NC(=S)N2CCN(C(=O)C3CCCO3)CC2)cc1 (stereo not shown) | 17.8%
53 | CC(=O)OCc1c(COC(C)=O)[n+](=O)c2ccccc2n1[O-] | -17.9%
54 | O=C(Oc1cccnc1)c1ccccc1[N+](=O)[O-] | -5.23%
55 | COC(=O)/C=C/S(=O)(=O)c1ccc(NC(C)=O)cc1 | -3.85%
56 | CCOc1cc(S(=O)(=O)n2cnc(C)c2)ccc1Cl | -8.24%
57 | c1ccc(CN=C2Nc3ccccc3CS2)nc1 | 18.6%
58 | COc1cc(O)oc1C=Nc1ccc(Oc2ccccc2)cc1 | 9.26%
59 | CC(OC(=O)Cc1c[nH]c2ccccc12)C(=O)Nc1ccccc1F (stereo not shown) | -11.7%
60 | COc1ccc(CC(=O)OCC(=O)Nc2cc(S(=O)(=O)N3CCOCC3)ccc2N2CCCC2)cc1 | -20.9%
61 | CC(=O)c1c(-c2ccccc2)c2ccccc2[nH]c1=O | 30.3%
62 | O=C(NCc1cccc(Br)c1)C1CC(c2ccccc2C(F)(F)F)=NO1 (stereo not shown) | -17.7%
63 | Cn1c(N)c(C(=O)COC(=O)c2ccccn2)c(=O)n(C)c1=O | 8.25%
64 | COc1ccc(CCN(C)C(=O)c2ccc(COc3ccccc3)o2)cc1OC | -3.91%
65 | CCc1cccc2c(C(=O)CSc3nnc(-c4ccncc4)n3C)c[nH]c12 | 1.11%
66 | COc1ccc(C)cc1-n1c(SCC(=O)Nc2cc(C)on2)nc2sc(C)c(C)c2c1=O | -2.19%

Row | SMILES | hERG current change (%, negative = inhibition) at 10uM
67 | CC(C)C(=O)N1CCN(c2ccc(NC(=O)c3ccc([N+](=O)[O-])o3)cc2)CC1 | -12.9%
68 | O=C1CCC(c2ccccc2)=NN1Cc1c(F)cccc1Cl | 1.33%
69 | Cc1cccc(NC(=O)C(=O)N/N=C/c2ccncc2)c1 | -12.3%
70 | CSc1ccccc1NC(=O)N1CCCC(C(=O)c2ccc3c(c2)OCO3)C1 (stereo not shown) | -39.8%
71 | O=C(Oc1ccc(-c2nnco2)cc1)N(c1ccccc1)c1ccccc1 | -28.9%
72 | CCN(CC)CCN1C(=O)C(O)=C(C(=O)c2ccco2)C1c1ccccn1 (stereo not shown) | 5.88%
73 | CCOc1ccc(OCCOC(=O)CNC(=O)c2ccc(Cl)cc2Cl)cc1 | 12.2%
74 | CCCn1c(SCC(=O)NCc2ccco2)nc2c1c(=O)n(C)c(=O)n2C | -18.6%
75 | COc1ccc(N(C)S(=O)(=O)c2cccc(C(=O)Nc3nnc(C4CC4)s3)c2)cc1 | 24.5%
76 | O=C(CN1C(=O)CC(c2ccccc2)Sc2ccccc21)NCC1CCCO1 (stereo not shown) | -13.3%
77 | COc1ccc(-c2csc(Nc3cc(C)ccn3)n2)cc1C | 12.4%
78 | S=c1[nH]c2ccc(Cl)cc2s1 | 21.1%
79 | CCn1cc(CN2CCc3c([nH]c4ccccc34)C2c2cccc(OC)c2)c(C)n1 (stereo not shown) | -57.3%
80 | Cc1ccc(CNC(=O)CCOc2ccc(C(C)(C)C)cc2)cc1 | 5.62%
81 | COc1ccc(CNC(=O)COc2ccc(C)nc2[N+](=O)[O-])cc1 | -9.16%
82 | CCN(CCN1CCCC1)C(=O)c1cc(COc2ccccc2SC)on1 | -32.1%
83 | COc1cccc(C(=O)N2CCN(Cc3ccccc3Br)CC2)c1.O=C(O)C(=O)O | -5.57%
84 | Cc1cc(/C=N/NS(=O)(=O)c2ccc(F)c(Cl)c2)no1 | 6.46%
85 | Cn1c2ccc(F)cc2c2ncn(Cc3ccccn3)c(=O)c21 | -16.3%
86 | O=C(CN1C(=O)c2ccccc2S1(=O)=O)NC(Nc1ccccc1F)C(Cl)(Cl)Cl (stereo not shown) | -5.35%
87 | Cc1ccc(NC(=O)C2C3C=CC4(CN(Cc5cccnc5)C(=O)C24)O3)cc1 (stereo not shown) | 7.51%
88 | N/C(Cc1ccccc1)=N\OC(=O)c1cccc2ccccc12 | 25.1%
